{"source": "paper PMC10726135", "note": "This is one part of the list. At the low end of the ranking the order means little. The protein was read in a cell extract, so binding may be indirect.", "data": [{"molecular_target": "T1, HNF4alpha2 (COS-7 nuclear extract) (UniProt P41235)", "T1 sequence": "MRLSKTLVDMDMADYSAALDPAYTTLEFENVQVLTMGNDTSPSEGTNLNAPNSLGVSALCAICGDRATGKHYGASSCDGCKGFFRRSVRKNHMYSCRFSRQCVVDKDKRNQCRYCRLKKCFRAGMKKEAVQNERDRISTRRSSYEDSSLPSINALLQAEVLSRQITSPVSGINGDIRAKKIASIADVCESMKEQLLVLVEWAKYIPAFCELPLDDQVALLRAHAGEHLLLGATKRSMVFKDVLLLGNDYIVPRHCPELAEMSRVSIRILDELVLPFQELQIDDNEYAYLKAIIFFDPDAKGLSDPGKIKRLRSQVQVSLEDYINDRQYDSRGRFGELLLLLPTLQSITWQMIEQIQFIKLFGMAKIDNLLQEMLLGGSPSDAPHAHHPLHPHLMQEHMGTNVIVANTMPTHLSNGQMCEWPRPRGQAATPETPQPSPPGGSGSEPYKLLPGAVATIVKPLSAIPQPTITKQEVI", "assay": "protein-binding microarray", "conditions": "COS-7 nuclear extract on double-stranded Agilent 4x180k PBM; binding buffer, salt, pH and temperature not given; high values mean tight binding; double strand, one strand shown; sequences stand for … in …GCCTAGGGAGATTAGAGTATCGGTCGA", "values": [{"sequence": "AGGAATCTGTTGAGAACTGGAGCAAAGGTC", "binding signal (log2 normalized intensity)": 4.91}, {"sequence": "TGTCCCACATTAACTGTGCTTCTGGGGTAT", "binding signal (log2 normalized intensity)": 0.697}, {"sequence": "AACCCTTGAGCTCTGCACAGCACAAGATAA", "binding signal (log2 normalized intensity)": -1.13}, {"sequence": "GTACCCCACAGGTATTCTTTCATCCCTCTC", "binding signal (log2 normalized intensity)": 1.47}, {"sequence": "AAGCCGAAAGAGGGTGAAAGTACAGTGATG", "binding signal (log2 normalized intensity)": 0.96}, {"sequence": "CCCATCCCAGAGGTCAAACTATCTGAGGTG", "binding signal (log2 normalized intensity)": 0.966}, {"sequence": "GGGCTGAGGATGAGGACTTTGGTCTTATTA", "binding signal (log2 normalized intensity)": 3.74}, {"sequence": "GTCTTTGCTTTTTGAAAAGCTGTAGTGAAC", "binding signal (log2 normalized intensity)": 1.31}, {"sequence": "CTCCAAGATAAAGGGTCAGATTGTAGCCTC", "binding signal (log2 normalized intensity)": 0.89}, {"sequence": "GGCAGCCAGTGAGTGCAGCAGTGTACTTGA", "binding signal (log2 normalized intensity)": 0.693}, {"sequence": "CTGCCAAAGCTCACAGATGTGGAATGAAAC", "binding signal (log2 normalized intensity)": -0.0699}, {"sequence": "ACCATCCACGGATGCATGATTGCTCTCTAC", "binding signal (log2 normalized intensity)": -0.932}, {"sequence": "AGTATCCCATCCATTTCCCATCCCCAGAGC", "binding signal (log2 normalized intensity)": 3.83}, {"sequence": "CAGCAGACAATGGGAGACATTCCTTCAGCG", "binding signal (log2 normalized intensity)": -0.979}, {"sequence": "CCTTTTCTATCCAGATGATCTTTACCCTGG", "binding signal (log2 normalized intensity)": 3.89}, {"sequence": "ATCAAAGCAGTATCATCAACATGCACTAGC", "binding signal (log2 normalized intensity)": -1.12}, {"sequence": "AGTCCGGGGGCCAGTTCACTCAGTCCACAT", "binding signal (log2 normalized intensity)": 2.12}, {"sequence": "CCTGACCTTTGGATTCCCAGATGGAGTGCT", "binding signal (log2 normalized intensity)": 3.37}, {"sequence": "CAGTAGATAACCTCAAAGAGCATGGCGCCA", "binding signal (log2 normalized intensity)": -1.14}, {"sequence": "ACTCATGCTTTCTTATCTGGGGGCCATTCC", "binding signal (log2 normalized intensity)": 1.43}, {"sequence": "ACTTAGTCCAGGTTTAGCAAGAATACTGCT", "binding signal (log2 normalized intensity)": -1.15}, {"sequence": "CTTAACATGGTTTGCAAGACCTCTGAGAAC", "binding signal (log2 normalized intensity)": 0.656}, {"sequence": "AACTCCTATGTGAATCTAATGCCACCATTG", "binding signal (log2 normalized intensity)": -0.453}, {"sequence": "GAGATAAGGGGGTCAGTTCAAAAGACTCAT", "binding signal (log2 normalized intensity)": -0.901}, {"sequence": "TTGTCCTTCACTTGTAGGAGACCTTGAGGA", "binding signal (log2 normalized intensity)": 1.34}, {"sequence": "ATTTTATGGGAAAACAGAATGGTCTGTATT", "binding signal (log2 normalized intensity)": 1.33}, {"sequence": "TTCCCGAGTGCCTTTAGAGGGCAAGGATCA", "binding signal (log2 normalized intensity)": 2.77}, {"sequence": "GAGGGATCAGGTCTTTCCTGTCCCAAGGGG", "binding signal (log2 normalized intensity)": -0.723}, {"sequence": "TGTTCTCTTTATTTATTAACTGGAGATAAC", "binding signal (log2 normalized intensity)": 0.571}, {"sequence": "GACCAGCGTGTGGCGCCATTTCAGGTCCAC", "binding signal (log2 normalized intensity)": 1.39}, {"sequence": "CTTTCCTGGGCCTTAAAGCATGACAAAATA", "binding signal (log2 normalized intensity)": 0.784}, {"sequence": "TCTGCTGGGCCTTCAGCTTGAAAACACAAC", "binding signal (log2 normalized intensity)": -1.17}, {"sequence": "ACTCGGAGGACTGAGCCCGCTCCACTCCGG", "binding signal (log2 normalized intensity)": -1.13}, {"sequence": "TTCCACAAACACAGATCAGATATGAGATTC", "binding signal (log2 normalized intensity)": -1.14}, {"sequence": "ACTTCCAAAGCCCCTTTCCACTCTACCGTC", "binding signal (log2 normalized intensity)": 1.54}, {"sequence": "CCGCCCACCCTTTTTTTTCTTTCTTTTCCC", "binding signal (log2 normalized intensity)": 1.54}, {"sequence": "GGTGAAATAGCTGAACTATTTAAGGCCTTT", "binding signal (log2 normalized intensity)": 0.822}, {"sequence": "CACATTCCATTCTCACTGACTCACGGCAGC", "binding signal (log2 normalized intensity)": -1.21}, {"sequence": "TTGCATCTCCTCCTCCCATTCCAGCTCTTT", "binding signal (log2 normalized intensity)": 1.33}, {"sequence": "GAAACATGACACCCATCATGAGTAGGTTTA", "binding signal (log2 normalized intensity)": -0.164}, {"sequence": "GGCTGCTTCACACAAACATCACCTACCTGA", "binding signal (log2 normalized intensity)": -1.14}, {"sequence": "CCTTTGTGTTTATGGCAAATTGATATCCTG", "binding signal (log2 normalized intensity)": 1.8}, {"sequence": "TACCAAGGAGTGGACTGTTCAAGACCAAAG", "binding signal (log2 normalized intensity)": -1.06}, {"sequence": "CTGCATGAAAGTTCTCTGGGCTTTTTGATC", "binding signal (log2 normalized intensity)": 1.51}, {"sequence": "TTCTTAACAAGCTGAGCACCAGAAACCTGC", "binding signal (log2 normalized intensity)": -1.07}, {"sequence": "GATCTGGGTTTGACCGTTCTCTCCGGGTAA", "binding signal (log2 normalized intensity)": 1.25}, {"sequence": "CATTTGGAGAGAGTTTGGCCCCAGTTCCCA", "binding signal (log2 normalized intensity)": 1.67}, {"sequence": "TTTCACAGTCGATCTTTGACCGCTGCCTCC", "binding signal (log2 normalized intensity)": 4.23}, {"sequence": "TGCTGCTCTAGATGAGGGGGAAAGGGGTTG", "binding signal (log2 normalized intensity)": -1.13}, {"sequence": "ACTGACCTTGTTGCCCACCCCCCAAGTAGA", "binding signal (log2 normalized intensity)": 5.96}, {"sequence": "TCATGGAGGTGTGGGGAGTTCCTTCAGACC", "binding signal (log2 normalized intensity)": -0.641}, {"sequence": "TTAGGAAACCTGGTAGCGTGTAGTAAAGCT", "binding signal (log2 normalized intensity)": -1.14}, {"sequence": "AACCAAAGTAGAGGAATGCTGGTAAACACT", "binding signal (log2 normalized intensity)": -1.04}, {"sequence": "CATCCAACTCCTTGAGAAGTACAACTTCAG", "binding signal (log2 normalized intensity)": -1.15}, {"sequence": "AAAGGAGCTGGGCCTGTGCTGGGGACAAAA", "binding signal (log2 normalized intensity)": -1.09}, {"sequence": "ACAAGGAGTCTCCACTATGACCTGTGCTTT", "binding signal (log2 normalized intensity)": 1.22}, {"sequence": "CAGCATGTTATCAGTTAATTGCATTCTTTG", "binding signal (log2 normalized intensity)": 0.488}, {"sequence": "CCGTCGGCACACACGCATGGCCGGCAGCAG", "binding signal (log2 normalized intensity)": -1.12}, {"sequence": "GTCACAGCAAAAGTAGCCTGGTCAGGAACA", "binding signal (log2 normalized intensity)": -1.14}, {"sequence": "TGAGTAATGTGAAGACTTCGCTGGAATGTC", "binding signal (log2 normalized intensity)": 0.286}, {"sequence": "CCAAACAGAACAAAGTCCAGTAAGGACAGT", "binding signal (log2 normalized intensity)": 2.51}, {"sequence": "ACTAGCTCCATGTGAGTCACAAACAGTACT", "binding signal (log2 normalized intensity)": -0.313}, {"sequence": "GCTCTGTAAGGAGGATCAAGTGTGCACACT", "binding signal (log2 normalized intensity)": 3.12}, {"sequence": "CAAACAAAGGCACTTCTCTCTCCAAGGCAC", "binding signal (log2 normalized intensity)": -1.18}, {"sequence": "GGAGTGCTCCCGCCTGACCTGGCCCCTGAG", "binding signal (log2 normalized intensity)": 0.791}, {"sequence": "ACAAGGAATTGGAATTGGGAGGACAGATAA", "binding signal (log2 normalized intensity)": -0.85}, {"sequence": "TATTGCCCTCAGGGTTTAGGCCTGGGACCT", "binding signal (log2 normalized intensity)": -0.673}, {"sequence": "TTTGCTCCAGTTCCCAATAATTTCCTTATC", "binding signal (log2 normalized intensity)": -0.628}, {"sequence": "TTCCAATAAACTTCATTTACCAAAAAACAG", "binding signal (log2 normalized intensity)": -0.884}, {"sequence": "TCAGCACACTCTGGTACCATGGATGCACTC", "binding signal (log2 normalized intensity)": -0.163}, {"sequence": "TAGTCCTATCACTGTCTAGCTGTGTAACCC", "binding signal (log2 normalized intensity)": 1.86}, {"sequence": "TACAGACTTTCAACAAGGTGGAGACCTCTG", "binding signal (log2 normalized intensity)": -0.777}, {"sequence": "ATGGAGATGGAGATGGCCTGGAGGTACCTA", "binding signal (log2 normalized intensity)": -1.11}, {"sequence": "ACCCCAAAACCCCCAAAGGTGAGTAGGGCC", "binding signal (log2 normalized intensity)": 2.67}, {"sequence": "TAGTACGCTCCCTGTGCCCACTTTCCTGGG", "binding signal (log2 normalized intensity)": -0.763}, {"sequence": "TGATCACAAAGCCTGGGGTTTGGCTCCAAG", "binding signal (log2 normalized intensity)": -1.12}, {"sequence": "ACCTGACAGGCTGAGGATCTAATGCACCCA", "binding signal (log2 normalized intensity)": -1.12}, {"sequence": "ACCTGCAAACCTTTGACCTTTCCATAGTTC", "binding signal (log2 normalized intensity)": 4.95}, {"sequence": "CTTCGCTGGAATGTCACAGGGATTACGATC", "binding signal (log2 normalized intensity)": -0.148}, {"sequence": "TTCTCTGAGGTAGTTGAGTGCCTCCATTTC", "binding signal (log2 normalized intensity)": 0.148}, {"sequence": "TTAGCCCAGTGAGACCCATTTTGGACTTTG", "binding signal (log2 normalized intensity)": 6.34}, {"sequence": "TCTCCTCCTCCCATTCCAGCTCTTTACTCA", "binding signal (log2 normalized intensity)": 0.713}, {"sequence": "AAGACATTGCCTGGCATTATCAGTGCTGCC", "binding signal (log2 normalized intensity)": -0.683}, {"sequence": "ACAATTTTCAAGAACAAACAAATTTAGCAA", "binding signal (log2 normalized intensity)": -1.17}, {"sequence": "TTACAAAAGAAGAAGATGATATGGTCAGTG", "binding signal (log2 normalized intensity)": 1.3}, {"sequence": "ATGGAGCTAAACAATTAAAGAACTCTTCAT", "binding signal (log2 normalized intensity)": -1.01}, {"sequence": "GTTATCTTGGGGCTGATATCTCTCTGGCTG", "binding signal (log2 normalized intensity)": -0.733}, {"sequence": "GGTAAATATTATCATTGCCTCTGGTATGCA", "binding signal (log2 normalized intensity)": 0.714}, {"sequence": "GGGTTTGGCTCCAAGGCTGAAGGTCTCGAG", "binding signal (log2 normalized intensity)": -0.624}, {"sequence": "ATGAGTTCCCGGCAAGCCGACTTACAGGAC", "binding signal (log2 normalized intensity)": -1.23}, {"sequence": "ATAATTCAGTTTCATTGCACTTTGCCCTCT", "binding signal (log2 normalized intensity)": 8.65}, {"sequence": "GACCTTTGAACACCACAAGTTTGAACTGCA", "binding signal (log2 normalized intensity)": 5.05}, {"sequence": "GTGTGCCCCACTTATCTGCTATTCTGGCAA", "binding signal (log2 normalized intensity)": -1.24}]}]}
